# Measured values as given in ChEMBL document CHEMBL4888484, “Replenishing the malaria drug discovery pipeline: Screening and hit evaluation of the MMV Hit Generation Library 1 (HGL1) against asexual blood stage Plasmodium falciparum ,using a nano luciferase reporter read-out” (2022).
# In all, about 4,800 compounds went through this assay and about 420 (8.8%) showed an effect of 50% or more. Some of the results follow.
# Tested on: Plasmodium falciparum
# Experiment: Confirmatory screen in NF54 nanoGlo assay, in single point, at 2uM, 72h
# Type: functional, Erythrocyte
# Settings: timepoint 72 hour
row,SMILES,% Inhibition
1,Cc1ccc(C(=O)N2C[C@@H]3C[C@H](NC(=O)c4cccnc4)[C@H]2C3)cc1F,-5%
2,Cc1cccc(NS(=O)(=O)c2ccc3c(c2)Cc2cc(S(=O)(=O)Nc4cccc(C)c4)ccc2-3)c1,10%
3,CCCNC(=O)O[C@@H]1CC[C@]2(C)C(CC[C@@H](O)[C@H]2CC(=O)N2CCC(C)CC2)[C@]1(C)CO (stereo partly drawn),6%
4,CN1C(=O)[C@@H]2CCCCN2c2ccc(C(=O)NCCN3CCN(c4ccccc4F)CC3)cc21,0%
5,O=C(NC1CC1C1CCCCC1)N1CCS(=O)(=O)CC1 (stereo not drawn),-3%
6,Oc1ccc(C2=C(c3ccccc3)N=NCN2O)c(O)c1,-14%
7,CC(C)[C@H](OC(=O)n1ccnc1)C(=O)OC(C)(C)C,-10%
8,CNCc1cc(OC)c(OC)cc1Cl,-2%
9,COc1ccccc1N1CCN(CC(=O)Nc2c3c(nc4ccccc24)N(c2cccc(C)c2)CC3)CC1,-6%
10,CCOC(=O)c1ccc2[nH]cnc2c1NC(C)=O,3%
11,Cn1nc(C(=O)NC2CCCCC2)cc1C(=O)NC1CCCCC1,-10%
12,COc1ccc(-n2ncc3c(N)c4c(nc32)CCCC4=O)cc1,38%
13,CCc1ccc(NC(=O)c2c(C)sc3ncnc(N4CCCCC4)c23)cc1,8%
14,N[C@H]1C[C@@H](c2cc(N3CCN(C4CCCCC4)CC3)nc(N3CCCC3)n2)C1,44%
15,COc1ccc(-n2nc(C)c3c2NC(=O)C[C@@H]3c2ccccc2OCC(C)C)nn1,-7%
16,C[C@H]1CCCN(S(=O)(=O)NCC(=O)Nc2ccccn2)C1,-15%
17,NC(=O)C(NC(=O)c1cccc(Cl)c1)C(N)=O,-23%
18,CC(CC1OCC(C[N+]2(Cc3ccccc3)CCCCC2)O1)CC(C)(C)C (stereo not drawn),57%
19,CS(=O)(=O)NCCn1nc(-c2cnccn2)cc1C1CC1,-1%
20,CC(C)Cn1ncnc1COC(=O)c1cccnc1,-1%
21,COc1cccc(C(=O)N2CCC[C@@]3(C2)Nc2cccnc2N=C3NCc2ccccc2)c1,-4%
22,COc1cc2c(cc1-c1cccnc1)CCC(=O)N2C,-15%
23,O=C(NOC1CCCCO1)NC1CCOC1c1ccc(Cl)cc1 (stereo not drawn),-8%
24,COc1cccc(C(=O)N2CCN(c3nnc4ccc(C(F)(F)F)cn34)CC2)c1,1%
25,Nc1ncncc1C(=O)NCCc1c[nH]c2ccc(F)cc12,-4%
26,CC(C)(NCc1ccncc1Cl)c1ccc2c(c1)OCO2,-8%
27,CC1(C)CN(C(=O)c2cn[nH]c(=O)c2)C(C)(C)CN1Cc1ccccc1,-2%
28,Cc1nonc1NC(=O)CCCC1CCCC1,0%
